From the supplement of paper PMC12632987 come the findings set out here.

Over roughly 1,800 sequences, “median log2 fold change of GCK-ALFA target abundance (FLAG IP / Myc IP barcode read proportion)” has its median near 0.14; the lowest 2% begin near -0.84. Some of the results follow.

T1: TRAF2, Q12933
T1 chain: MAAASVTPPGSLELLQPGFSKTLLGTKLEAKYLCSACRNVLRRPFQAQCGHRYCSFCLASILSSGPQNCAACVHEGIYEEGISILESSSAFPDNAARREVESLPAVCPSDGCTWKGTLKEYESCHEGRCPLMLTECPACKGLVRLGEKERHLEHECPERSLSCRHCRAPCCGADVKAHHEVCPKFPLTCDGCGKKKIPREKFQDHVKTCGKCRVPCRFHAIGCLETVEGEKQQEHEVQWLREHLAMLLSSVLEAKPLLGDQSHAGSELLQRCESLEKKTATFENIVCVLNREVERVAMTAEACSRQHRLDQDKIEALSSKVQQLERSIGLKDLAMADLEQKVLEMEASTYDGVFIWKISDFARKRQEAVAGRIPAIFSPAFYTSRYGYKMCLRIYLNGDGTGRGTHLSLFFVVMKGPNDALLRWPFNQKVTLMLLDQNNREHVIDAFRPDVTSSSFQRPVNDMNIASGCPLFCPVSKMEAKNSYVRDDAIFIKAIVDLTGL

B1: traf2_out_11_169_795 (protein)
chain: EEAEKNRKINEKALELNDKAKEELLEHALELAKKEGLDVEEVKAIYEKNKNKSLSAVASALIKYFKSKGAEEAAKAVEEKYEELKEKINKEMTAFIKELE
B2: traf2_out_18_3_1900 (protein)
chain: KEEKLQEVSEKIDEIIDEVTARAREVLDWLAAHHPEVAARVDALRADLEAGAGPFGILEALAELAREAGDEELAEEIEKFLKEKREELQKLVDEYEKLLA
B3: traf2_out_8_174_2574 (protein)
chain: SERERLRIVSEVLTEFADILDEAEERLEALKDLPLEELRKESQKILDEALKRIDEIEERRVKEVDEETAELIRRAARSAKQQLRNMVEGTIKRKELREKA
B4: traf2_out_18_3_1933 (protein)
chain: SEEERKEISEKIDEIVDEVRARAVEELERARKELPEHRERIDRLRATLEAGGAPFGILDALAELYREAGKEEEAEEIEEFLREKRKKMQELVEKYEELIK
B5: traf2_out_9_108_2598 (protein)
chain: MTPEELADEEVEEVIGTVEEKVPEVKFSEEQKENIRRELHRVVRLSEITNRDTIRSYVSSLVLLSARDLPLETLERIADVLIELDPSTKSTVERTLSLLK
B6: traf2_out_6_166_2478 (protein)
chain: EEEIRKRIRELVKKFGEYEPEIVIEAFEKLAEERSDERARLARQFATAVRQAQKAGLPVETALSGLVDGLIALGVPLEEILELLEEALKIAEEIAKEKEE
B7: traf2_out_18_167_1825 (protein)
chain: EEEKEKRIEELSDRLIALSEVRRAALAALEAARTDPAAAPAALAAVIAALEAVPEFRPDAAALRAAAPEARPALLEEVAERAGREANRLYKERERLKKEL
B8: traf2_out_14_149_1243 (protein)
chain: SAMAKKFKAAAELYEKVAEALKEVIKLLKAGKVEEAKKLLKETIKELEEEGKKAGITISAIFELEHILELLDTDVEKAKKAAEEALKRAKSAADAFRSLA
B9: traf2_out_11_155_685 (protein)
chain: EEKQKINNELVDKISEIADKAKAEARAIAAATAAAHPEAAAALAATLEASAGFGLSSFLGRLAATFRALGLADAAAQVEALRAQAQKEMNAAVKEAEEKL
B10: traf2_out_14_154_1269 (protein)
chain: DALWAELEYHSAWRRFYDSVVEAMKTLSREETLAHLRATTDLVVARVPEHAAEIRARAARIEAALAGSEEERAALLAELEAEAAAEAKKARAAYEKILAE
B11: traf2_out_15_151_1301 (protein)
chain: SVEEELAKAEEEMKKQLERTLKEMKEVAEKEKDPELKAKLQEVIEALEAVKDKDIVTISLAIRAARHVLEAYRALTEEGDEERAAEHLALADKLLAELKA
B12: traf2_out_13_95_1206 (protein)
chain: EEEKTKKLREITNKIADELIDFVEEKADEIEEKTGIEEYRDDILRTLRRYGVRAAVALIREYAKKDPEHAEVFEKAAEEAEKKIREAGKKAAEEMKKIEE
B13: traf2_out_11_155_760 (protein)
chain: STRIALANAINDAAMEIADKIDAFIEEVIAEVEKEDPEVAKEIKAALEKHRDASARSKAKIVADVLKKHGYEEKAKRVEEFLEEAQKELNKRVKEIEESA
B14: traf2_out_18_3_1932 (protein)
chain: TEEERKEISDKIDEIVDEVRAYAERELARAREELPEHAARIDALEATLRAGGAPFGVLDALAELYREAGLEERAKEIEEFLRKKRKEMQKLVEEYEELIK
B15: traf2_out_20_3_2138 (protein)
chain: EELEKKLQEELDKAIALLKQAAALADAATAAQLDALIATLKASKELSYEDRLVTLSEIRRQVLALAEAARAAGKAELAALLEEAADALNKAMNLVMKIIE
B16: traf2_out_17_162_1523 (protein)
chain: SPLEERLAALEARLEALEKRLKELKEKLKNLKNMSKEELTDLLVEASEARREALELAEELRELKPEIGEERAGALIERAEAIAEELQKIANKIYKELEKK
B17: traf2_out_11_169_772 (protein)
chain: EEAEKNRKINDKALELNDEAKKKLEEKALALAKEAGLDVEEIKKIFEENKNKSLSAVASALIEYFLSKGKEEEAKKILEFYEELKDEINKESSAFIKELE
B18: traf2_out_14_17_1290 (protein)
chain: KVLEILKEIIKRAEELLKEHPELALELNQLLRKAESTLVLAEMYEEDPSYKPLLIESLRQLAKLAEELAKKLEKKSKEGAKIVEEIRRKAEEAREIVEKE
B19: traf2_out_11_155_735 (protein)
chain: EEKQKLIQEMNDKIMELFEEARRRALEIARRAAERHPEHREEIEAAIEESKGFSYRSFILEMIRLFRELGLEEEAEELERLLEETQRKASKIVIETEKKL

For the experiment, the target named is T1, TRAF2, Q12933. The experiment can be described thus: median log2 fold change of GCK-ALFA target abundance (FLAG IP / Myc IP barcode read proportion) (log2 ratio); each designed protein is fused to an ALFA-tag nanobody in HEK293 cells to bring the named protein to FLAG-tagged glucokinase (GCK); Myc marks an untargeted standard; higher = target protein stabilised (more abundant). The following applies: target protein: 3xFLAG-MCP-GCK-ALFA reporter; HEK293 landing pad (RPLP). An outline of the steps:
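Binders fused to an ALFA nanobody were recombined as a library into HEK293 landing-pad cells, which were induced with 2 μg mL^−1 doxycycline and then transfected to express a FLAG-tagged target and a Myc-tagged standard. After 48 h, circular RNA barcodes recovered by anti-FLAG and anti-Myc immunoprecipitation of lysates were reverse transcribed, amplified and sequenced. Each binder's target abundance is the median log2 ratio of FLAG to Myc barcode read proportions, from barcodes present at ≥10^−7 in both replicates, binders carrying ≥3 barcodes per replicate, a 10^−6 pseudocount and pooled replicates.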
For B1, the “median log2 fold change” value was determined as 0.128.

As for B2, the “median log2 fold change” value was 0.0634.

Turning to B3, the “median log2 fold change” value is -0.187.

For B4, the “median log2 fold change” value is 0.136.

Turning to B5, the “median log2 fold change” value turned out to be 0.0238.

Regarding B6, the “median log2 fold change” value is 0.332.

Consider B7, for which the “median log2 fold change” value was 0.35.

Take B8: the “median log2 fold change” value was -0.113.

Regarding B9, the “median log2 fold change” value amounted to 0.177.

Regarding B10, the “median log2 fold change” value was 0.27.

Take B11: the “median log2 fold change” value is 0.136.

Consider B12, for which the “median log2 fold change” value is -0.148.

Turning to B13, the “median log2 fold change” value was determined as 0.182.

Consider B14, for which the “median log2 fold change” value is 0.138.

On to B15, for which the “median log2 fold change” value was -0.268.

Turning to B16, the “median log2 fold change” value turned out to be 0.633.

For B17, the “median log2 fold change” value was 0.396.

Take B18: the “median log2 fold change” value was 0.118.

Consider B19, for which the “median log2 fold change” value is -0.138.
